{"source": "PubChem BioAssay (EPA / NIEHS)", "key": {"[1]": {"read-out": "Matrix Metallopeptidase 1 (MMP1), MMP1 (gene 4312)", "test": "BSK_BE3C_MMP1: BioMAP Diversity Plus: BE3C Assay for Matrix Metallopeptidase 1 (MMP1) Biomarker Activity (AID 2283024)", "settings": "actives raise or lower the signal; primary human bronchial epithelial cells", "in_short": "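Human primary bronchial epithelial cells (BE3C system) dosed for 24 h; MMP-1 quantified by ELISA. Bidirectional fit against DMSO; cytotoxicity tracked in parallel cultures by SRB total-protein staining.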"}, "[2]": {"read-out": "Interferon-gamma inducible Protein 10 (IP10), CXCL10 (gene 3627)", "test": "BSK_KF3CT_IP10: BioMAP Diversity Plus: KF3CT Assay for Interferon-gamma inducible Protein 10 (IP10) Biomarker Activity (AID 2283068)", "settings": "actives raise or lower the signal; primary human keratinocytes with fibroblasts", "in_short": "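In a primary skin co-culture of keratinocytes and fibroblasts, IP-10 is quantified by ELISA at 24 h after dosing. SRB staining of parallel wells monitors overt toxicity. Curves are fitted both directions against DMSO.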"}, "[3]": {"test": "CEETOX_H295R_OHPROG: CeeTox H295R High-throughput Steroidogenesis Assay for OH-Progesterone (OHPROG) (AID 2283435);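 note: human adrenal H295R cells primed 48 h with 10 µM forskolin; 17alpha-hydroxyprogesterone secreted into medium measured by HPLC-MS/MS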", "settings": "actives raise or lower the signal"}, "[4]": {"read-out": "Monokine induced gamma interferon (MIG), CXCL9 (gene 4283)", "test": "BSK_3C_MIG: BioMAP Diversity Plus: 3C Assay for Monokine induced gamma interferon (MIG) Biomarker Activity (AID 2283021)", "settings": "actives raise or lower the signal; primary human endothelial cells (HUVEC)", "in_short": "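HUVEC primary endothelial cultures dosed with chemical; MIG quantified by ELISA at 24 h. Data fitted bidirectionally against DMSO control, with parallel SRB total-protein staining for cytotoxicity.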"}, "[5]": {"target": "human Serotonin, 5-Hydroxytryptamine Receptor 2A (5HT2A), HTR2A (gene 3356) (UniProt P28223)", "sequence (P28223 whole entry, looked up)": "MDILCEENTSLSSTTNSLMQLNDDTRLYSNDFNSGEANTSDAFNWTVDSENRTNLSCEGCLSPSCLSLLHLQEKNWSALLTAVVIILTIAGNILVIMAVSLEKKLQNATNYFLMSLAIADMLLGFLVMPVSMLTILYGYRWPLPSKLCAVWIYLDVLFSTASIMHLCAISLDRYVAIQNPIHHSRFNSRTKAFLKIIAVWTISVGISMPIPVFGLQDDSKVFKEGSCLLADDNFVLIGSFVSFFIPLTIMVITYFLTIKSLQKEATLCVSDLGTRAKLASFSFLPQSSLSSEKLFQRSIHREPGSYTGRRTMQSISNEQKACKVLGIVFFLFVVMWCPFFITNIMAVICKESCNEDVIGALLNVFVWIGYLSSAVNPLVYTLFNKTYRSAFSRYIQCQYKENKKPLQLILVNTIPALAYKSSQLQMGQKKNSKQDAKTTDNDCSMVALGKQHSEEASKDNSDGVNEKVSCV", "test": "NVS_GPCR_h5HT2A: NovaScreen (NVS) G Protein-Coupled Receptor Assay for human Serotonin, 5-Hydroxytryptamine Receptor 2A (5HT2A) (AID 2283249; active = hit-call score of the fitted dose curve at least 0.9, where 1 is the maximum)", "in_short": "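Human cortex membranes, cell-free radioligand binding; filter-based scintillation read 1.5 h after dosing. Duplicate screen at 25 uM first; displacement of specific binding (loss of signal) versus DMSO.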"}, "[6]": {"read-out": "Fatty acid synthase (Homo sapiens) (UniProt P49327)", "test": "LTEA_HepaRG_FASN: Life Technologies and Expression Analysis (LTEA) Assay for Fatty Acid Synthase (FASN) using HepaRG (AID 2283448)", "settings": "actives raise or lower the signal; mRNA level, 48 h", "in_short": "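Differentiated HepaRG cells in serum-free induction medium exposed 48 h in duplicate to eight half-log concentrations, top 100 uM, 0.5% DMSO. FASN mRNA by qRT-PCR normalised to ACTB, GAPDH, POLR2A; bidirectional fit versus DMSO.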"}, "[7]": {"target": "human Vitamin D Receptor (VDR), VDR (gene 7421) (UniProt P11473)", "sequence (P11473 whole entry, looked up, the tested form may be a part)": "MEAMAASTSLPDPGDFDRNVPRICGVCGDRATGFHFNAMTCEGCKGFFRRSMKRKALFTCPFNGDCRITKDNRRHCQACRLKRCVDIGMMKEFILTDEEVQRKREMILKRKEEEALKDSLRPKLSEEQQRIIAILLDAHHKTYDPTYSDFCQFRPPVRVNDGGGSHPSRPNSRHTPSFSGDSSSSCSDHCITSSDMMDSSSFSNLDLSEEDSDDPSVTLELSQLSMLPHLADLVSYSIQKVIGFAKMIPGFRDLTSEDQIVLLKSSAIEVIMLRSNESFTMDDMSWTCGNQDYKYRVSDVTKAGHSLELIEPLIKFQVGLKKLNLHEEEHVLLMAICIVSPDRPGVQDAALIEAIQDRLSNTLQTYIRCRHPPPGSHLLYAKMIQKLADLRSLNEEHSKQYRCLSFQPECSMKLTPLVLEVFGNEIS", "test": "ATG_VDR_TRANS: Attagene TRANS-FACTORIAL HepG2 Assay for human Vitamin D Receptor (VDR) (AID 2283022; active = hit-call score of the fitted dose curve at least 0.9, where 1 is the maximum)", "in_short": "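RT-PCR/capillary electrophoresis read-out of reporter mRNA induction in transiently transfected HepG2; 24 h dosing; chimeric NR-Gal4 (TRANS format); gain-of-signal fit against DMSO baseline.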"}, "[8]": {"target": "human Thyroid Receptor alpha (THRa1), THRA (gene 7067) (UniProt P10827)", "sequence (P10827 whole entry, looked up, the tested form may be a part)": "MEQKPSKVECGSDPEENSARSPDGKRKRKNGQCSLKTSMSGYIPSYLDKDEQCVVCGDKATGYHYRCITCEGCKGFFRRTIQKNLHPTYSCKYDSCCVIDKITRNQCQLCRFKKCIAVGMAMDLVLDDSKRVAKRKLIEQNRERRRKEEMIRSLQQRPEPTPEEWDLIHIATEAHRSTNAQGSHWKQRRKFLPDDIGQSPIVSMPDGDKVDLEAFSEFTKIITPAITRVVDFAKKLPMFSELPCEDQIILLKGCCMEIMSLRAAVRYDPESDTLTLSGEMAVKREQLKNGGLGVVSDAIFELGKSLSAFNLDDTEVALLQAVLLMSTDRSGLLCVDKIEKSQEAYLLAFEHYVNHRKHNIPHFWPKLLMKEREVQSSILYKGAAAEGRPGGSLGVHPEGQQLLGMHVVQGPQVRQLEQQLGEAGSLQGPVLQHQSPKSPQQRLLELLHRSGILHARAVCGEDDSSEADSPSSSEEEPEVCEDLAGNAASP", "test": "ATG_THRa1_TRANS: Attagene TRANS-FACTORIAL HepG2 Assay for human Thyroid Receptor alpha (THRa1) (AID 2283014; active = hit-call score of the fitted dose curve at least 0.9, where 1 is the maximum)", "in_short": "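Transient HepG2 transfection, NR-Gal4 chimera driving GAL4-UAS reporters; 24 h compound exposure; total RNA, oligo(dT) RT, PCR, fluorescent primer extension, capillary electrophoresis. Upward direction vs DMSO control.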"}, "[9]": {"test": "BSK_3C_SRB: Viability Assessment in the BioMAP Diversity Plus: 3C Assay (AID 2283023);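 note: fitted both ways against DMSO so a hit may be signal rise or drop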", "settings": "primary human endothelial cells (HUVEC)", "in_short": "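HUVEC, 24 h post-dose; 10% TCA fix, 0.1% SRB stain, A560 nm. Bidirectional curve fit vs DMSO negative control.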"}, "[10]": {"test": "ACEA_AR_agonist_AUC_viability: ACEA Biosciences xCELLigence Real-Time Cell Analysis on Androgen Receptor Agonism for Viability (AID 2283775; active = hit-call score of the fitted dose curve at least 0.9, where 1 is the maximum)", "in_short": "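Real-time impedance tracking of 22Rv1 growth, readings every 5 min for 5 h then hourly; area-under-curve viability endpoint at 80 hours, relative to DMSO. Compounds at eight concentrations, 1:4 steps, top 100 uM, n = 2.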"}, "[11]": {"test": "ACEA_AR_antagonist_AUC_viability: ACEA Biosciences xCELLigence Real-Time Cell Analysis on Androgen Receptor Antagonism for Viability (AID 2283776; active = hit-call score of the fitted dose curve at least 0.9, where 1 is the maximum)", "in_short": "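22Rv1 human prostate cancer cells were seeded on electrode plates, monitored overnight, then exposed to eight 1:4 dilutions from 100 uM final. Impedance-based growth kinetics at 80 h gave an AUC viability endpoint normalized to DMSO.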"}, "[12]": {"test": "CCTE_Deisenroth_AIME_384WELL_CTox_Inactive: Cytotoxicity Assessment (CTOX) in CCTE's 384-well Estrogen Receptor Transactivation Assay without AIME metabolic competence (metabolism negative), Deisenroth Lab (AID 2284039; active = hit-call score of the fitted dose curve at least 0.9, where 1 is the maximum;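 note: cell viability via live-cell protease substrate cleaved to fluorescent probe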)", "in_short": "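VM7Luc4E2 cells, metabolism-negative arm: test chemicals (0.002–200 uM, 10 points) pre-incubated 2 h with alginate-water microspheres, then medium transferred to cells for 24 h. Viability read as protease-substrate cleavage to fluorescent probe; loss-of-signal, bidirectional fitting.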"}, "[13]": {"read-out": "Interleukin-8 (IL8), CXCL8 (gene 3576)", "test": "BSK_SAg_IL8: BioMAP Diversity Plus: SAg Assay for Interleukin-8 (IL8) Biomarker Activity (AID 2283094)", "settings": "actives raise or lower the signal; primary human HUVEC with PBMC", "in_short": "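Human umbilical vein endothelial cells co-cultured with PBMC, stimulated with superantigen; IL-8 measured by ELISA 24 h after chemical dosing. Bidirectional fitting versus DMSO; SRB staining in parallel cultures tracks cytotoxicity.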"}, "CYP2C9 (gene 1559)": {"read-out": "CYP2C9 (gene 1559)", "test": "LTEA_HepaRG_CYP2C9: Life Technologies and Expression Analysis (LTEA) Assay for CYP2C9 using HepaRG (AID 2283484)", "settings": "actives raise or lower the signal; mRNA level, 48 h", "in_short": "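Cells plated 48 h, switched to serum-free induction medium, then treated in duplicate for 48 h at eight concentrations (max 100 uM, 0.5% DMSO). RNA then analysed by qRT-PCR for CYP2C9; curves fitted in both directions relative to DMSO.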"}, "[14]": {"read-out": "Human Leukocyte Antigen - DR isotype (HLADR), HLA-DRA (gene 3122)", "test": "BSK_3C_HLADR: BioMAP Diversity Plus: 3C Assay for Human Leukocyte Antigen - DR isotype (HLADR) Biomarker Activity (AID 2283019)", "settings": "actives raise or lower the signal; primary human endothelial cells (HUVEC)", "in_short": "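HUVEC, 3C stimulation, 24 h post-dose; HLA-DR by ELISA; bidirectional curve fit vs DMSO baseline; gain or loss of signal scored.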"}, "[15]": {"read-out": "TIMP metallopeptidase inhibitor 1 (TIMP1), TIMP1 (gene 7076)", "test": "BSK_hDFCGF_TIMP1: BioMAP Diversity Plus: hDFCGF Assay for TIMP metallopeptidase inhibitor 1 (TIMP1) Biomarker Activity (AID 2283062)", "settings": "actives raise or lower the signal; primary human foreskin fibroblasts", "in_short": "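ELISA readout of TIMP-1 from human dermal foreskin fibroblast cultures 24 h post-dosing. Curves were fitted in both directions against DMSO baseline, with SRB total-protein staining in parallel cultures as a cytotoxicity check.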"}, "[16]": {"read-out": "solute carrier (SLC22A1), SLC22A1 (gene 6580)", "test": "LTEA_HepaRG_SLC22A1: Life Technologies and Expression Analysis (LTEA) Assay for solute carrier (SLC22A1) using HepaRG (AID 2283524)", "settings": "actives raise or lower the signal; mRNA level, 48 h", "in_short": "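HepaRG (human liver line), 48 h dosing in serum-free induction medium; 8 conc., half-log down from 100 uM, 0.5% DMSO vehicle, duplicates. Endpoint: SLC22A1 mRNA, qRT-PCR, housekeeping-normalized; gain/loss fit vs DMSO.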"}, "[17]": {"test": "TOX21_p53_BLA_p3_viability: Viability Assessment in the Tox21 HCT-116 p53 Agonism Beta-lactamase Assay, Phase 3 (AID 2283593; active = hit-call score of the fitted dose curve at least 0.9, where 1 is the maximum)", "in_short": "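Cellular ATP was quantified by CellTiter-Glo luminescence, read after 30 min at room temperature. Beforehand, HCT116 cells (4000/well) received compound 5 h post-seeding, 217-fold diluted from DMSO, then incubated 16 h at 37C.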"}, "[18]": {"test": "BSK_3C_Vis: BioMAP Diversity Plus: 3C Assay for Morphology Visualization (AID 2283025);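 note: light microscopy image of cell morphology used as background control; fitted both ways so gain or loss versus DMSO counts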", "settings": "primary human endothelial cells (HUVEC)", "in_short": "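Human umbilical vein endothelial cell morphology was inspected by light microscopy 24 h after chemical dosing; scored bidirectionally relative to DMSO.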"}, "[19]": {"read-out": "Transforming growth factor beta 1 (TGFb1), TGFB1 (gene 7040)", "test": "BSK_BE3C_TGFb1: BioMAP Diversity Plus: BE3C Assay for Transforming growth factor beta 1 (TGFb1) Biomarker Activity (AID 2283036)", "settings": "actives raise or lower the signal; primary human bronchial epithelial cells", "in_short": "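Primary human bronchial epithelial cells dosed with chemical; TGF-b1 measured by ELISA 24 h after dosing. Bidirectional curve fitting against DMSO negative control; SRB total-protein staining in parallel cultures gauged cytotoxicity.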"}, "CD40, CD40 (gene 958)": {"read-out": "CD40, CD40 (gene 958)", "test": "BSK_SAg_CD40: BioMAP Diversity Plus: SAg Assay for CD40 Biomarker Activity (AID 2283088)", "settings": "actives raise or lower the signal; primary human HUVEC with PBMC", "in_short": "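HUVEC/PBMC co-culture, 24 h post-dose; CD40 by ELISA, fluorescence intensity; bidirectional fit vs DMSO negative control.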"}, "[20]": {"test": "CCTE_Simmons_MITO_basal_resp_rate: CCTE's HepG2 Seahorse XF Respirometric Screening Assay at Basal Respiratory State, Simmons Lab (AID 2284001)", "settings": "actives raise or lower the signal", "in_short": "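HepG2 respirometry; 7-pt titration 125 nM–100 uM final; kinetic OCR at 6 min intervals for 72 min; n=3 biological, technical singles; DMSO baseline, gain or loss fit; fenpyroximate (decrease) and 2,4-DNP (increase) controls.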"}}, "note": "For some assays here: Most of the hits are listed elsewhere, so they are rarer here than in the full data. Inconclusive results are not listed. This is a selection; strong and weak results do not stand in their true shares. Calls of active or inactive are those of the source. Rule for the calls, unless noted: active = hit-call score of the fitted dose curve at least 0.9, where 1 is the maximum; inactive = score below 0.9."}
{"smiles": "CC1COc2ccccc2N1C(=O)C(Cl)Cl", "note": "(centres undefined)", "values": [{"measurement": "outcome", "setting": "[1]", "result": "inactive"}, {"measurement": "outcome", "setting": "[2]", "result": "inactive"}, {"measurement": "AC50", "setting": "[3]", "result": "active: 10.5 µM"}]}
{"smiles": "CCN(CC)CCNc1ccc(CNC=O)c2sc3ccc(OC)cc3c(=O)c12", "values": [{"measurement": "AC50", "setting": "[4]", "result": "active: 35.7 µM"}, {"measurement": "AC50", "setting": "[5]", "result": "active: 15.2 µM"}, {"measurement": "AC50", "setting": "[6]", "result": "active: 35.7 µM"}]}
{"smiles": "C=C[C@](C)(O)CC[C@@H]1[C@@]2(C)CCCC(C)(C)[C@@H]2CC[C@@]1(C)O", "values": [{"measurement": "outcome", "setting": "[7]", "result": "inactive"}]}
{"smiles": "O=C(C(=O)c1ccccc1)c1ccccc1", "values": [{"measurement": "outcome", "setting": "[7]", "result": "inactive"}]}
{"smiles": "CC1=NN(c2ccccc2)C(=O)C1", "values": [{"measurement": "outcome", "setting": "[8]", "result": "inactive"}]}
{"smiles": "NCCNCCN", "values": [{"measurement": "outcome", "setting": "[7]", "result": "inactive"}, {"measurement": "outcome", "setting": "[9]", "result": "inactive"}, {"measurement": "outcome", "setting": "[10]", "result": "inactive"}, {"measurement": "outcome", "setting": "[11]", "result": "inactive"}, {"measurement": "outcome", "setting": "[12]", "result": "inactive"}]}
{"smiles": "CCCCCCOC(=O)CCCCC", "values": [{"measurement": "outcome", "setting": "[8]", "result": "inactive"}]}
{"smiles": "CCCCC(CC)COC(=O)c1ccc(C(=O)OCC(CC)CCCC)cc1", "note": "(centres undefined)", "values": [{"measurement": "outcome", "setting": "[1]", "result": "inactive"}, {"measurement": "outcome", "setting": "[13]", "result": "inactive"}, {"measurement": "outcome", "setting": "CYP2C9 (gene 1559)", "result": "inactive"}]}
{"smiles": "Cc1c(C)c2c(c(C)c1O)CCC(C)(COc1ccc(CC3SC(=O)NC3=O)cc1)O2", "note": "(centres undefined)", "values": [{"measurement": "AC50", "setting": "[14]", "result": "active: 29 µM"}, {"measurement": "AC50", "setting": "[15]", "result": "active: 14 µM"}, {"measurement": "AC50", "setting": "[16]", "result": "active: 24.4 µM"}, {"measurement": "AC50", "setting": "[17]", "result": "active: 37.2 µM"}]}
{"smiles": "CCCCCCCCCCCC[N+](C)(C)C", "values": [{"measurement": "AC50", "setting": "[9]", "result": "active: 22.5 µM"}, {"measurement": "AC50", "setting": "[18]", "result": "active: 16.3 µM"}, {"measurement": "AC50", "setting": "[19]", "result": "active: 20 µM"}, {"measurement": "AC50", "setting": "CD40, CD40 (gene 958)", "result": "active: 11.1 µM"}, {"measurement": "AC50", "setting": "[13]", "result": "active: 30.6 µM"}, {"measurement": "AC50", "setting": "[10]", "result": "active: 12.1 µM"}, {"measurement": "AC50", "setting": "[20]", "result": "active: 35.5 µM"}]}
